Data from PubChem BioAssay AID686978 (National Center for Advancing Translational Sciences (NCATS), 2013).
The campaign covered roughly 420,000 compounds. About 64,000 (15%) were called active. The inconclusive results got no clear call from the source; some entries with a clear call stand among them for comparison. Calls come from the whole dose curve; as a rule, active = well fitted inhibition curve with a large enough effect; inconclusive = small, poorly fitted or top-dose-only effect; inactive = flat fitted curve, though single readings scatter. No potency is given beside an inconclusive call; the fits are too rough.

test: qHTS for Inhibitors of human tyrosyl-DNA phosphodiesterase 1 (TDP1): qHTS in cells in absence of CPT; conditions: DT40 Tdp1-/- hTDP1 cells, no CPT, ATP luminescence, 48 h; activity change, negative = growth inhibition: at 46.2 µM (top of the series) unless noted; note: nearly all actives have a fitted effect of over 55% in size
Outline: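 Compound effects on proliferation are scored in DT40 Tdp1-/-;hTDP1 cells in the absence of CPT. ATP levels (CellTiter-Glo luminescence) are recorded after a ≥48 hr, 37 °C incubation.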
% is set by controls: 0 for no effect and ±100 for the full control effect; potency is the fitted concentration of half-maximal effect; tags give direction and shape of the fitted curve.

Row | Compound | activity change, negative = growth inhibition | Potency
1 | Cc1ccc(NC(=O)CCNS(=O)(=O)c2ccc3c(c2)oc(=O)n3C)cc1C | inactive: -11.2% | –
2 | CCc1ccc(NC(=S)N(CCCN2CCOCC2)Cc2ccco2)cc1 | inconclusive: -31.7% [inhibitor] | –
3 | CC1=C(c2ccc(Cl)cc2)[N+](=O)C(C)(C)N1[O-] | – | inconclusive [inhibitor, single point]
4 | COc1ccc(-n2c(=O)c3c4c(sc3n3c(=S)[nH]nc23)CCCC4)cc1 | – | inconclusive [inhibitor, single point]
5 | COc1ccc(C(C)=O)cc1Cn1c(C)c(C(=O)NCc2ccc(C(F)(F)F)cc2)sc1=O | – | inconclusive [inhibitor, single point]
6 | COc1ccc(-c2cc(C(F)(F)F)n3nc(C(=O)N4CCOCC4)c(Cl)c3n2)cc1 | – | active: 29.1 µM
7 | Cc1ccc(N2CCN(C(=O)NC3CCCCC3)CC2)c(C)c1 | – | inconclusive [inhibitor, single point]
8 | CN(CCc1ccccc1)C(=O)c1cccc(NC(=O)Cc2cccc(NC(=O)C3CCCN(C(=O)c4ccccc4)C3)c2)c1 (stereo not drawn) | – | inconclusive [inhibitor, single point]
9 | COc1ccc(N2C3=[N+](CCCC3)CC2(C)O)cc1 (stereo not drawn) | – | active: 3.66 µM
10 | Cc1ccc(S(=O)(=O)Nc2cccc3c2CCCC3)cc1 | inactive: -25% | –
11 | CSc1ccc(CN(C)C(=O)c2cccc(S(=O)(=O)NCc3ccccc3)c2)cc1 | – | inconclusive [inhibitor, single point]
12 | COc1cccc(NC(=O)CSc2nc3ccccc3nc2N2CCCC2)c1 | – | inconclusive [inhibitor, single point]
13 | COc1ccc(-c2sc3ccc(OC)cc3c2-c2ccc(O)cc2)cc1 | – | inconclusive [inhibitor, single point]
14 | CC(C)c1ccc(/C=N/n2c(-c3ccccc3)n[nH]c2=S)cc1 | – | inconclusive [inhibitor, single point]
15 | CC(=O)Cn1c(CN2CCCC2)nc2ccccc2c1=O | inactive: -18.7% | –
16 | Cc1cc(C(=O)Nc2sc3c(c2C#N)CCC3)no1 | – | inconclusive [inhibitor, single point]
17 | O=C(CCS(=O)(=O)c1ccc(Br)cc1)Nc1cc(F)ccc1F | inconclusive: -34.5% [inhibitor] | –
18 | Cc1nn(C)c(C)c1S(=O)(=O)N(CC(=O)NCCc1ccccc1)c1ccc(C(C)C)cc1 | – | inconclusive [inhibitor, single point]
19 | Cc1cccc(N2CCN(C(=S)NCCc3ccccc3)CC2)c1C | – | inconclusive [inhibitor, single point]
20 | COc1ccc(-c2coc3c(C(=O)NCCN4CCOCC4)cccc23)c(C)c1 | – | inconclusive [inhibitor, single point]
21 | COc1ccc(-c2oc3cc(OC(C)=O)cc(OC(C)=O)c3c(=O)c2OC)cc1 | – | inconclusive [inhibitor, partial curve]
22 | CCn1nc(C)cc1C(=O)N1CCc2c([nH]c3ccccc23)C1c1cc(F)ccc1F (stereo not drawn) | – | inconclusive [inhibitor, single point]
23 | Cc1cc(C(=O)N2CC(C)CC(C)C2)c(C)o1 (stereo not drawn) | – | inconclusive [inhibitor, partial curve]

Row | Compound | activity change, negative = growth inhibition | Potency
24 | CCCSc1nnc(NC(=O)Nc2ccccc2OC)s1 | – | inconclusive [inhibitor, single point]
25 | CCOc1ccc(CCN2C(=S)N([C@@H](Cc3ccc(O)cc3)CN3CCC[C@@H]3CN3C(=S)NC[C@@H]3Cc3ccccc3)C[C@@H]2Cc2ccccc2)cc1 | – | inconclusive [inhibitor, single point]
26 | CC(=O)Nc1ccc(NC(=O)c2cc(-c3ccc(F)cc3C)n[nH]2)cc1 | – | inconclusive [inhibitor, single point]
27 | CCOC(=O)[C@@H](C)N(C(=O)OC(C)(C)C)S(=O)(=O)N(Cc1ccccc1)[C@@H](C(=O)OC)C(C)C | – | inconclusive [inhibitor, single point]
28 | CCc1ccc(NC(=O)CSc2ccnc(=O)[nH]2)cc1 | inactive: -19.2% | –
29 | CN(C)CC(=O)N1c2ccccc2Sc2ccc(Cl)cc21 | inactive: -14.5% | –
30 | CCN1CCN(C(c2cccs2)C(C)NS(=O)(=O)c2ccc(C)cc2)CC1 (stereo not drawn) | – | inconclusive [inhibitor, single point]
31 | CCc1nc2c(OCc3ccccc3C)cccn2c1N(C)C(=O)CC(C)C | – | active: 18.4 µM
32 | Cc1ccc(-n2c(-c3cnccn3)n[nH]c2=S)cc1 | inactive: 5.71% | –
33 | CCCCNC(=O)c1nn(C)c2c1CSc1ccccc1-2 | – | inconclusive [inhibitor, single point]
34 | Cc1c(NS(=O)(=O)c2cccc(C(=O)Nc3cccc(F)c3)c2)c(=O)n(-c2ccccc2)n1C | – | inconclusive [inhibitor, single point]
35 | COc1ccc(C(C)(O)c2nc(-c3cccc(NC(C)=O)c3)cs2)cc1 (stereo not drawn) | – | inconclusive [inhibitor, single point]
36 | Cc1ccc(C(=O)c2cn(Cc3cccc(Cl)c3)c3nc(C)ccc3c2=O)cc1 | – | inconclusive [inhibitor, single point]
37 | CCc1ccc(NC(=O)CN2C(=O)CSC2=O)cc1 | inactive: -14.3% | –
38 | c1ccc(Nc2cc(Nc3ccccc3)[nH]n2)cc1 | – | inconclusive [inhibitor, full curve]
39 | COc1cccc(C(O)c2nc(-c3ccccc3OC)cs2)c1 (stereo not drawn) | – | inconclusive [inhibitor, partial curve]
40 | COc1cccc(CNC(=O)CCC2CCCN(c3cc(C)nc(N4CCCC4)n3)C2)c1 (stereo not drawn) | – | inconclusive [inhibitor, single point]
41 | CN(C)S(=O)(=O)c1cccc(-c2nnc(SCC(=O)NCCCCCC(=O)O)n2-c2ccc(F)cc2)c1 | inactive: -4.33% | –
42 | COc1ccccc1C(=O)N1C(CC(=O)Nc2ccccc2C)C(=O)NC2CCCCC21 (stereo not drawn) | inactive: 8.38% | –
43 | Cc1ccccc1C(=O)NC1CC2CCCC(C1)N2Cc1ccccc1Cl (stereo not drawn) | – | inconclusive [inhibitor, single point]
44 | COc1ccc(NC(=O)c2ccco2)cc1NC(=O)COc1ccc(C)c(C)c1 | – | inconclusive [inhibitor, single point]
45 | CCOc1ccccc1N1CCN(Cc2cccc(OC)c2O)CC1 | – | inconclusive [inhibitor, single point]
46 | O=C(c1cccc(F)c1)N1CCc2ccccc2C1 | inactive: -13% | –

Row | Compound | activity change, negative = growth inhibition | Potency
47 | O=C(Nc1ccccc1C(F)(F)F)C1CCN(C(=O)Cc2ccccc2)CC1 | inactive: -1.44% | –
48 | Cc1cc2c(cc1S(=O)(=O)NCc1ccc(F)cc1)n(C)c(=O)c(=O)n2C | – | inconclusive [inhibitor, single point]
49 | Cc1ncn(C23CC4CC(CC(O)(C4)C2)C3)n1 | inactive: 11.2% | –
50 | CC(C)c1nnc(NC(=O)c2c(O)c3cccc4c3n(c2=O)CCC4)s1 | – | inconclusive [inhibitor, single point]
51 | CCOC(=O)N1CCC(N2Cc3cccc(C(=O)Nc4ccc(N(CC)CC)cc4C)c3C2=O)CC1 | – | active: 16.4 µM
52 | O=C(NCCCn1ccnc1)c1ccc(N2CCCCC2)c([N+](=O)[O-])c1 | – | inconclusive [inhibitor, single point]
53 | CC(C)NC(=O)c1cc(C2CCCCN2C(=O)CCCc2ccccc2)on1 (stereo not drawn) | – | inconclusive [inhibitor, single point]
54 | Cc1cc(=O)oc2cc(NC(=O)c3cccc(S(C)(=O)=O)c3)ccc12 | – | inconclusive [inhibitor, partial curve]
55 | CCOC(=O)C(CC)Sc1ccc2nnc(-c3cccnc3)n2n1 (stereo not drawn) | – | inconclusive [inhibitor, single point]
56 | CCOC(=O)/C(=N\Nc1ccc(Cl)cc1)Sc1nnc(-c2ccc(OC)cc2)n1C | inactive: -12.5% | –
57 | Cc1ccc(CNc2ccc3c(c2)ncn3C(C)C)cc1 | – | active: 13 µM
58 | O=S(=O)(c1ccccc1)[C@@]1(c2ccccc2)C[C@@H]2ON=C(c3cccc(Br)c3)[C@@H]2C1 | – | active: 3.66 µM
59 | COC(=O)c1ccc(NC(=O)CCN2CCN(Cc3ccccc3)CC2)cc1 | inactive: -13.4% | –
60 | CC(C)(C)C(=O)Nc1sc2c(c1C(=O)Nc1ccccn1)CCCC2 | – | inconclusive [inhibitor, single point]
61 | CN(CC(=O)Nc1c(Cl)cccc1Cl)C(=O)CC1OC(=O)c2ccccc21 (stereo not drawn) | inactive: 2.57% | –
62 | CCOc1ccc(NC(=O)c2ccc(NC(=O)COC(=O)Cc3ccc(OC)cc3)cc2)cc1 | – | inconclusive [inhibitor, single point]
63 | CNc1cncc(-c2ccc(F)c(F)c2)n1 | – | inconclusive [inhibitor, single point]
64 | CC(C)c1nc2ccccn2c1NC1CCCCC1 | – | inconclusive [inhibitor, partial curve, poor fit]
65 | CCn1c(-c2cccnc2Cl)nc2cc(Cl)c(Cl)cc21 | – | inconclusive [inhibitor, single point]
66 | COc1cccc(-c2cc(NC=O)c3ncc(-c4cccc(C(=O)NCCN(C)C)c4)n3c2)c1 | – | inconclusive [inhibitor, single point]
67 | Cc1ccc(C(=O)Nc2c(C(=O)N3CCOCC3)cnn2-c2ccccc2)cc1 | – | inconclusive [inhibitor, full curve, poor fit]
68 | CCOC(=O)C1CCCN(CC(=O)Nc2c(C(=O)OC)[nH]c3ccc(Cl)cc23)C1 (stereo not drawn) | – | inconclusive [inhibitor, single point]
